In PubChem BioAssay AID1671194 (National Center for Advancing Translational Sciences (NCATS), 2021):
In all, about 140,000 compounds went through this assay and about 240 (0.17%) were called active. The shares of active, inactive and inconclusive entries below differ from those in the screen. Calls follow the shape of the dose curve; as a rule, active = well fitted inhibition curve with a large enough effect; inconclusive = small, poorly fitted or top-dose-only effect; inactive = no such curve, though single readings can be large or run the other way. A potency beside an inconclusive call is a rough fit, not a confirmed value.

Assay: Primary qHTS assay for inhibitors of alpha-synuclein gene (SNCA) expression; also: nearly all actives have a fitted effect of over 45% in size;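 as to activity change, negative = inhibition: plate controls were DMSO cells for no effect and cell-free wells for full effect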
Details: HEK-293 SNCA-luciferase knock-in, luminescence, 24 h; activity change, negative = inhibition: at 57.2 µM (top of the series) unless noted
Potency is read from the fitted curve at half-maximal effect; tags tell the direction and shape of the fitted curve.

| Compound | activity change, negative = inhibition | Potency |
| --- | --- | --- |
| N#Cc1cccc(C(=O)Nc2ccc([C@@H](O)[C@H]3COCC(=O)N3)cc2)c1 | inactive: 6.06% [at 87.6 µM] | – |
| CCOC(=O)c1[nH]c(C)c(CCC(=O)N2CCN(c3ccc(Cl)cc3)CC2)c1C | inactive: -11.3% | – |
| O=C(c1cc2ccccc2[nH]1)N1CCNc2cnc(Nc3ccccc3)nc2C1 | – | inconclusive: 12.6 µM [inhibitor, partial curve] |
| C=CCN1CCc2c(cc(O)c(O)c2Cl)C(c2ccccc2)C1 (stereo not given) | inactive: 0.955% | – |
| O=C1c2c(nc(COc3cccc(Cl)c3)n2Cc2ccccc2)NCCN1CC1CC1 | – | inconclusive: 44.7 µM [inhibitor, partial curve, poor fit] |
| c1ccc(-c2nnc3ccc(NC4CC4)nn23)nc1 | – | inconclusive: 1.41 µM [inhibitor, full curve, poor fit] |
| O=C(NCc1ccc(F)c(F)c1)c1ccc2nnc(-c3ccoc3)n2c1 | – | inconclusive: 15.8 µM [inhibitor, partial curve, poor fit] |
| Cc1ccc(-n2nc(C)c([C@@H]3C=C[C@@H](NC(=O)Nc4ccc(Cl)cc4)C3)c2C)cc1Cl | – | inconclusive: 39.8 µM [inhibitor, single point] |
| c1ccc(-c2ccccc2Nc2cnc3ccc(-n4ccnc4)nn23)cc1 | – | inconclusive: 6.31 µM [inhibitor, partial curve, poor fit] |
| Cc1nnc2n1CCC(NC(=O)CCc1c[nH]c3ccccc13)CC2 (stereo not given) | – | inconclusive: 3.16 µM [inhibitor, single point] |
| Cc1cc(Cl)ccc1OCC(=O)N1CCC([C@@H]2CNC[C@H]2CO)CC1 | – | inconclusive: 39.8 µM [inhibitor, partial curve, poor fit] |
| Cc1cccc(OCC(=O)Nc2ccc3nc(SCc4ccccc4)sc3c2)c1 | – | inconclusive: 7.08 µM [inhibitor, single point] |
| CC(CCc1ccccc1)NC(=O)CSc1n[nH]c(-c2ccccc2Cl)n1 (stereo not given) | inactive: -26.5% | – |
| CC(C)CCN1CCC(N2CCN(S(=O)(=O)c3ccc(F)cc3F)CC2)C1=O (stereo not given) | – | inconclusive: 2.24 µM [inhibitor, full curve] |
| CCN(CC)[C@H]1[C@@H]2OC[C@@H](O2)[C@@H](NC(=O)Nc2cccc(OC)c2)[C@@H]1O | – | inconclusive: 56.2 µM [inhibitor, single point] |
| O=[N+]([O-])c1cccc(-c2noc([C@@H]3C[C@@H](O)CN3CC3CCCCC3)n2)c1 | – | inconclusive: 39.8 µM [inhibitor, single point] |
| CC(=O)N1CC2(CCN(C(=O)c3ccc(Cl)cc3)CC2)Cc2ccccc21 | – | inconclusive: 8.91 µM [inhibitor, partial curve] |
| COc1cccc([S+](=O)([O-])N2CCC3(CC2)C(=O)Nc2ccccc23)c1 | – | inconclusive: 44.7 µM [inhibitor, single point] |
| CN1CCN(Cc2ccc(NC(=O)Nc3ccc(Oc4cc(NC(=O)C5CC5)ncn4)cc3)cc2C(F)(F)F)CC1 | – | active: 0.482 µM |
| Cc1cc(C)cc(-n2ccn3cnnc3c2=O)c1 | – | inconclusive: 5.01 µM [inhibitor, single point] |

| Compound | activity change, negative = inhibition | Potency |
| --- | --- | --- |
| CS(=O)(=O)N1CCC(OC2CCN(C(=O)Nc3c(F)cccc3F)CC2)CC1 | inactive: 21.2% | – |
| CCOCCn1nc(C)cc1C(=O)N1CCC2(CC1)[C@H](O)C[C@@H]2OCC | – | inconclusive: 20 µM [inhibitor, single point] |
| CCCN(c1ccccc1F)S(=O)(=O)c1cc(-c2cc(C)no2)ccc1C | – | inconclusive: 17.8 µM [inhibitor, single point] |
| COc1ccc(-c2cc(-c3c(C)noc3C)c3cncn3c2)cn1 | – | inconclusive: 20 µM [inhibitor, partial curve, poor fit] |
| CCC[C@@H](NC(=O)[C@@H]1[C@H]2CCC[C@@H]2CN1C(=O)[C@@H](NC(=O)[C@@H](NC(=O)c1cnccn1)C1CCCCC1)C(C)(C)C)C(=O)C(=O)NC1CC1 | – | inconclusive: 15.2 µM [inhibitor, single point] |
| Cn1cncc1CN1CCC2(CCN(C3CCOCC3)CC2)C(CO)C1 (stereo not given) | – | inconclusive: 0.708 µM [inhibitor, full curve, poor fit] |
| O=C(Nc1ccon1)c1cnc2n[nH]c(-c3ccccc3)c2n1 | – | inconclusive: 3.98 µM [inhibitor, partial curve, poor fit] |
| CN(Cc1ccc(F)cc1)S(=O)(=O)c1cccc(C(F)(F)F)c1 | inactive: 34.2% | – |
| CN1Cc2nc(-c3cnn(Cc4ccccc4)c3)ccc2OCC1=O | inactive: 44.7% [at 87.6 µM] | – |
| Cc1cccc(CNC(=O)C2CCCN(c3cnc4nc(C)c(C)nc4c3)C2)c1 (stereo not given) | – | inconclusive: 39.8 µM [inhibitor, single point] |
| COc1ccc(C(=O)N2C[C@@H]3C[C@H](C2)c2ccc(-c4ccc5ccccc5c4)c(=O)n2C3)cc1 | inactive: -23.2% | – |
| COc1cccc(CC(=O)N2CCC(Cc3nc(-c4ccncc4)n[nH]3)C2)c1 (stereo not given) | – | inconclusive: 8.91 µM [inhibitor, single point] |
| CCCN(CCC)c1cc(C)nc2nc(-c3ccc(C(C)(C)C)cc3)nn12 | – | inconclusive: 35.5 µM [inhibitor, single point] |
| O=C(C1CC1)N1CCC2(CC1)Cc1ccccc1NC2=O | – | inconclusive: 5.62 µM [inhibitor, partial curve, poor fit] |
| COCCN1CCC(N2CCN(C(=O)C3CCCCC3)CC2)C1=O (stereo not given) | inactive: 1.1% | – |
| O=C1CCCCCN1C1CCN(Cc2ccsc2)CC1 | inactive: 11% [at 87.6 µM] | – |
| COc1cccc(CN2CCOC3(CCN([S+](=O)([O-])c4ccccc4C)CC3)C2=O)c1 | inactive: 10.8% | – |
| O=C(NCc1ccccc1)c1ccccc1OC1CN(Cc2ccc(F)c(F)c2)C1 | – | inconclusive: 39.8 µM [inhibitor, single point] |
| COCCn1c(C)cc(O)c(C(c2ccccc2)N2CCCCC2)c1=O (stereo not given) | – | inconclusive: 15.8 µM [inhibitor, single point] |
| Cc1ccc([S+](=O)([O-])N2CCC(C(=O)N3CCC(c4nc5ncccc5[nH]4)CC3)C2)cc1 (stereo not given) | – | inconclusive: 8.91 µM [inhibitor, partial curve, poor fit] |
